B1: Caulobacter ParB omega fusion; a variant is named by its letters at X, in order, B8GW30 (parent)
chain: MESVVVGEPGMSEGRRGLGRGLSALLGEVDAAPAQAPGEQLGGSREAPIEILQRNPDQPRRTFREEDLEDLSNSIREKGVLQPILVRPSPDTAGEYQIVAGERAWRAAQRAGLKTVPIMVRELDDLAVLEIGIIENVQRADLNVLEEALSYKVLMEKFERTQENIAQTIGKSXSHVANXMRLLXLPDEVQSYLVSGELTAXHARAIAAAADPVALAKQIIEGGLSVRETEALARKAPNLSAGKSKGGRPPRVKDTDTQALESDLSSVLGLDVSIDHRGSTGTLTITYATLEQLDDLCNRLTRGI

Here are results for 76 variants from a collection of fitness landscapes (doi:10.1016/j.celrep.2020.107928).

The full ranking holds about 81,000 sequences; the median of “one-hybrid fitness for binding NBS DNA” is about -0.1, and the highest 2% start at about 0.36. This is one part of the list.

Variants of B1 are the subject of this assay. The assay can be described thus: one-hybrid fitness for binding NBS DNA (the Noc-binding site; scaled: cognate 1, non-cognate 0); higher = stronger binding. Conditions: with NBS DNA site. The method in brief:
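Fitness is the rescaled log change in variant-to-wild-type read ratio, measured by Illumina sequencing of plasmids before and after bacterial one-hybrid selection. The scale puts cognate at 1 and non-cognate at 0. Selection of Caulobacter ParB libraries, four specificity codons randomised, took place in E. coli USO with a HIS3 reporter, site 19 bp from the promoter, over 48 hours at 37°C on M9-minus-histidine with 0.1 mM IPTG and 5 mM 3-AT.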
On to SCLF, for which the “one-hybrid fitness for binding NBS DNA” value was not above 0.2.

Turning to GKYF, the “one-hybrid fitness for binding NBS DNA” value is not above 0.2.

Regarding ETAD, the “one-hybrid fitness for binding NBS DNA” value was not above 0.2.

On to HAHQ, for which the “one-hybrid fitness for binding NBS DNA” value is not above 0.2.

As to YMDC, the “one-hybrid fitness for binding NBS DNA” value is not above 0.2.

Take AGSP: the “one-hybrid fitness for binding NBS DNA” value was not above 0.2.

In the case of IWPC, the “one-hybrid fitness for binding NBS DNA” value was not above 0.2.

Regarding SSCW, the “one-hybrid fitness for binding NBS DNA” value was not above 0.2.

In the case of QCYM, the “one-hybrid fitness for binding NBS DNA” value was not above 0.2.

With ALWM, the “one-hybrid fitness for binding NBS DNA” value was not above 0.2.

On to ACLP, for which the “one-hybrid fitness for binding NBS DNA” value was not above 0.2.

With EQNC, the “one-hybrid fitness for binding NBS DNA” value was not above 0.2.

In the case of CSKL, the “one-hybrid fitness for binding NBS DNA” value is not above 0.2.

Take QLMT: the “one-hybrid fitness for binding NBS DNA” value was 0.34.

For MFTR, the “one-hybrid fitness for binding NBS DNA” value was not above 0.2.

VVGR: the “one-hybrid fitness for binding NBS DNA” value was not above 0.2.

VRSR: the “one-hybrid fitness for binding NBS DNA” value was 0.256.

As for NSTR, the “one-hybrid fitness for binding NBS DNA” value was not above 0.2.

On to IASR, for which the “one-hybrid fitness for binding NBS DNA” value is not above 0.2.

Take ERQV: the “one-hybrid fitness for binding NBS DNA” value was not above 0.2.

Take IGNL: the “one-hybrid fitness for binding NBS DNA” value was not above 0.2.

Regarding DWGL, the “one-hybrid fitness for binding NBS DNA” value is not above 0.2.

With HGAS, the “one-hybrid fitness for binding NBS DNA” value is not above 0.2.

With SLDD, the “one-hybrid fitness for binding NBS DNA” value is not above 0.2.

Consider KFYR, for which the “one-hybrid fitness for binding NBS DNA” value was not above 0.2.

Take HKLD: the “one-hybrid fitness for binding NBS DNA” value was not above 0.2.

In the case of DLMS, the “one-hybrid fitness for binding NBS DNA” value is not above 0.2.

For the variant VGKG, the “one-hybrid fitness for binding NBS DNA” value was not above 0.2.

On to RFTQ, for which the “one-hybrid fitness for binding NBS DNA” value was not above 0.2.

As for PWWR, the “one-hybrid fitness for binding NBS DNA” value is not above 0.2.

Turning to IVMS, the “one-hybrid fitness for binding NBS DNA” value is not above 0.2.

For SRCG, the “one-hybrid fitness for binding NBS DNA” value was not above 0.2.

Take EHVN: the “one-hybrid fitness for binding NBS DNA” value was not above 0.2.

With KSGT, the “one-hybrid fitness for binding NBS DNA” value is not above 0.2.

MIQS: the “one-hybrid fitness for binding NBS DNA” value is not above 0.2.

On to KTYI, for which the “one-hybrid fitness for binding NBS DNA” value is not above 0.2.

Consider PMTF, for which the “one-hybrid fitness for binding NBS DNA” value is not above 0.2.

Regarding IWSI, the “one-hybrid fitness for binding NBS DNA” value is not above 0.2.

On to YAEN, for which the “one-hybrid fitness for binding NBS DNA” value was not above 0.2.

Regarding GNNY, the “one-hybrid fitness for binding NBS DNA” value is not above 0.2.

FIVL: the “one-hybrid fitness for binding NBS DNA” value was not above 0.2.

On to SMCC, for which the “one-hybrid fitness for binding NBS DNA” value was not above 0.2.

For FFCS, the “one-hybrid fitness for binding NBS DNA” value was not above 0.2.

As to TQYT, the “one-hybrid fitness for binding NBS DNA” value was not above 0.2.

For AHVV, the “one-hybrid fitness for binding NBS DNA” value is not above 0.2.

For the variant VDLL, the “one-hybrid fitness for binding NBS DNA” value was not above 0.2.

With DRVS, the “one-hybrid fitness for binding NBS DNA” value was not above 0.2.

Turning to PTKR, the “one-hybrid fitness for binding NBS DNA” value turned out to be 0.27.

Regarding VLAI, the “one-hybrid fitness for binding NBS DNA” value is not above 0.2.

Turning to SRDS, the “one-hybrid fitness for binding NBS DNA” value was not above 0.2.

For YETY, the “one-hybrid fitness for binding NBS DNA” value was not above 0.2.

For VQLC, the “one-hybrid fitness for binding NBS DNA” value was not above 0.2.

Regarding KTWV, the “one-hybrid fitness for binding NBS DNA” value is not above 0.2.

LIGC: the “one-hybrid fitness for binding NBS DNA” value was not above 0.2.

Consider PTAS, for which the “one-hybrid fitness for binding NBS DNA” value was not above 0.2.

With EIWR, the “one-hybrid fitness for binding NBS DNA” value was not above 0.2.

For RDCR, the “one-hybrid fitness for binding NBS DNA” value is not above 0.2.

Turning to RQAA, the “one-hybrid fitness for binding NBS DNA” value is not above 0.2.

On to RRPA, for which the “one-hybrid fitness for binding NBS DNA” value is 0.282.

With AQLP, the “one-hybrid fitness for binding NBS DNA” value was not above 0.2.

Consider NMTT, for which the “one-hybrid fitness for binding NBS DNA” value was not above 0.2.

For YMVW, the “one-hybrid fitness for binding NBS DNA” value is not above 0.2.

As for RKMR, the “one-hybrid fitness for binding NBS DNA” value worked out at 0.577.

Consider WHDS, for which the “one-hybrid fitness for binding NBS DNA” value is not above 0.2.

SCYE: the “one-hybrid fitness for binding NBS DNA” value was not above 0.2.

For the variant ASHC, the “one-hybrid fitness for binding NBS DNA” value was not above 0.2.

FGAG: the “one-hybrid fitness for binding NBS DNA” value is not above 0.2.

KAYV: the “one-hybrid fitness for binding NBS DNA” value was not above 0.2.

For the variant THKK, the “one-hybrid fitness for binding NBS DNA” value was not above 0.2.

For NPVS, the “one-hybrid fitness for binding NBS DNA” value is not above 0.2.

Regarding SVTC, the “one-hybrid fitness for binding NBS DNA” value is not above 0.2.

For EIVW, the “one-hybrid fitness for binding NBS DNA” value is not above 0.2.

For QYMY, the “one-hybrid fitness for binding NBS DNA” value amounted to 0.453.

In the case of MKKS, the “one-hybrid fitness for binding NBS DNA” value was not above 0.2.

Consider HTLY, for which the “one-hybrid fitness for binding NBS DNA” value was not above 0.2.

Consider KWPV, for which the “one-hybrid fitness for binding NBS DNA” value was not above 0.2.
